These are yes or no findings as the source states them, for the method shown. In cells and extracts the contact can be indirect.
Target: CBD (chitin-binding domain)-tagged STAT3 (UniProt P40763)
Assay: co-IP

The chains behind the UniProt entries cited, without tags or fusion partners.
UniProt P40763: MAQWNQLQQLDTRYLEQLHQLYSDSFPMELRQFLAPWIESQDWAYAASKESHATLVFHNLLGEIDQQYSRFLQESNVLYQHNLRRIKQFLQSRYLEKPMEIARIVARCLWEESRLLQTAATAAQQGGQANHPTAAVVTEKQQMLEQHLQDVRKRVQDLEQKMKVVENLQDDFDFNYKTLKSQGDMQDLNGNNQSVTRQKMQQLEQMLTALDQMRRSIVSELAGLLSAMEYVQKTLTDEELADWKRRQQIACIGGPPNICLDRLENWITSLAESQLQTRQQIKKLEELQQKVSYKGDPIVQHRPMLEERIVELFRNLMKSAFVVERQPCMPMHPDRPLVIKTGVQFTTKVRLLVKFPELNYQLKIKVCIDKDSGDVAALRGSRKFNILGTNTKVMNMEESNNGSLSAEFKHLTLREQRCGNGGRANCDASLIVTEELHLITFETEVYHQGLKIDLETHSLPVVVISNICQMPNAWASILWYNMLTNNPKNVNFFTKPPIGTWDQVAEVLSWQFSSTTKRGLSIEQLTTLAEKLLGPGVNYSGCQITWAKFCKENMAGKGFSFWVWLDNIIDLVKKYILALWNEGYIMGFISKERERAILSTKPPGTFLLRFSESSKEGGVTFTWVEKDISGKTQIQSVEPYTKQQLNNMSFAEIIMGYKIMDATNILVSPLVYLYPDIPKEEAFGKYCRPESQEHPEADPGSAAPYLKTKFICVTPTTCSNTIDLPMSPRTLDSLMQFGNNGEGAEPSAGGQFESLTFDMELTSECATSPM

Substance | binding
Flag-tagged vIRF-1 deletion variant Δ3 (deleted of residues 48-72) (from UniProt F5HF68 1-449) | no binding
Flag-tagged vIRF-1 deletion variant Δ2 (deleted of residues 23-47) (from UniProt F5HF68 1-449) | no binding

Source: PMC10695398 (PLOS Pathogens, 2023)
